Measurements from article PMC12820563, “FoxP3 forms a head-to-head dimer in vivo and stabilizes its multimerization on adjacent microsatellites”.
This is one part of the list.

These sequences were tested against T1, MBP-FoxP1dN (Mus musculus, UniProt P58462 326-579) (assay: PD-seq (MBP pull-down with sequencing); 20 mM Tris-HCl pH 7.5, 100 mM NaCl, 1.5 mM MgCl2, 0.4 uM protein, 0.1 uM dsDNA library, 30 min, room temperature, amylose pull-down; high values mean tight binding). Details: protein: recombinant; tags: His6-MBP; chain copies: 2; dsDNA, one strand shown.
T1 sequence: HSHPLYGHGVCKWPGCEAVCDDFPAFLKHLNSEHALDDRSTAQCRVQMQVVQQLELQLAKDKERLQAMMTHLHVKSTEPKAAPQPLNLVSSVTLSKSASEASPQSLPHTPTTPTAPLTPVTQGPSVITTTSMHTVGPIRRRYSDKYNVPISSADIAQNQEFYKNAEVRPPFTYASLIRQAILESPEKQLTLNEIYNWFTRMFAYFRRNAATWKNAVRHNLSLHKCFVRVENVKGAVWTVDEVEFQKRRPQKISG
Summary of the method: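 In Tris pH 7.5 buffer with NaCl and MgCl2, 0.4 µM His6-MBP-tagged mouse FoxP3 or FoxP1 fragment lacking the N-terminus, from E. coli, met 0.1 µM Klenow-filled double-stranded degenerate DNA library for 30 min at room temperature. Three washes on amylose resin followed capture of the complexes, then proteinase K release of DNA, PCR barcoding and Illumina sequencing. Binding is taken as pooled-replicate reads-per-million enrichment of pull-down relative to input.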

| Sequence | binding signal |
| --- | --- |
| GATGATTGTTCTCCCAGCTGATGAATTAGTCCTATCGAGTAAACAAATTTTCCTAATCTTTCTGTTCAAGCGCCATCTAC | 0.933 RPM ratio (pull-down/input) |
| GATGATTGTTCTCCCAGCTGATGAATTAAGCGACTCGAGTAAACAAATTTTCCTAATCTTTCTGTTCAAGCGCCATCTAC | 0.552 RPM ratio (pull-down/input) |
| GATGATTGTTCTCCCAGCTGATGAATTGGGTGCTTCGAGTAAACAAATTTTCCTAATCTTTCTGTTCAAGCGCCATCTAC | 0.861 RPM ratio (pull-down/input) |
| GATGATTGTTCTCCCAGCTGATGAATTTAACTCATCGAGTAAACAAATTTTCCTAATCTTTCTGTTCAAGCGCCATCTAC | 0.912 RPM ratio (pull-down/input) |
| GATGATTGTTCTCCCAGCTGATGAATTGCCGAGATCGAGTAAACAAATTTTCCTAATCTTTCTGTTCAAGCGCCATCTAC | 0.887 RPM ratio (pull-down/input) |
| GATGATTGTTCTCCCAGCTGATGAATTGCTCTCCTCGAGTAAACAAATTTTCCTAATCTTTCTGTTCAAGCGCCATCTAC | 0.853 RPM ratio (pull-down/input) |
| GATGATTGTTCTCCCAGCTGATGAATTTACCAGGTCGAGTAAACAAATTTTCCTAATCTTTCTGTTCAAGCGCCATCTAC | 1.04 RPM ratio (pull-down/input) |
| GATGATTGTTCTCCCAGCTGATGAATTTAGTAGATCGAGTAAACAAATTTTCCTAATCTTTCTGTTCAAGCGCCATCTAC | 0.978 RPM ratio (pull-down/input) |
| GATGATTGTTCTCCCAGCTGATGAATTCTGTCCTTCGAGTAAACAAATTTTCCTAATCTTTCTGTTCAAGCGCCATCTAC | 0.894 RPM ratio (pull-down/input) |
| GATGATTGTTCTCCCAGCTGATGAATTATGGTAGTCGAGTAAACAAATTTTCCTAATCTTTCTGTTCAAGCGCCATCTAC | 0.994 RPM ratio (pull-down/input) |
| GATGATTGTTCTCCCAGCTGATGAATTCCAAATTTCGAGTAAACAAATTTTCCTAATCTTTCTGTTCAAGCGCCATCTAC | 0.833 RPM ratio (pull-down/input) |
| GATGATTGTTCTCCCAGCTGATGAATTGGGCAAGTCGAGTAAACAAATTTTCCTAATCTTTCTGTTCAAGCGCCATCTAC | 0.81 RPM ratio (pull-down/input) |
| GATGATTGTTCTCCCAGCTGATGAATTTCTGTACTCGAGTAAACAAATTTTCCTAATCTTTCTGTTCAAGCGCCATCTAC | 0.909 RPM ratio (pull-down/input) |
| GATGATTGTTCTCCCAGCTGATGAATTATCACGATCGAGTAAACAAATTTTCCTAATCTTTCTGTTCAAGCGCCATCTAC | 0.895 RPM ratio (pull-down/input) |
| GATGATTGTTCTCCCAGCTGATGAATTCCTCGAATCGAGTAAACAAATTTTCCTAATCTTTCTGTTCAAGCGCCATCTAC | 0.891 RPM ratio (pull-down/input) |
| GATGATTGTTCTCCCAGCTGATGAATTCTTAATCTCGAGTAAACAAATTTTCCTAATCTTTCTGTTCAAGCGCCATCTAC | 0.925 RPM ratio (pull-down/input) |
| GATGATTGTTCTCCCAGCTGATGAATTCCAGGGTTCGAGTAAACAAATTTTCCTAATCTTTCTGTTCAAGCGCCATCTAC | 0.729 RPM ratio (pull-down/input) |
| GATGATTGTTCTCCCAGCTGATGAATTCAACGATTCGAGTAAACAAATTTTCCTAATCTTTCTGTTCAAGCGCCATCTAC | 0.92 RPM ratio (pull-down/input) |
| GATGATTGTTCTCCCAGCTGATGAATTCGTTACTTCGAGTAAACAAATTTTCCTAATCTTTCTGTTCAAGCGCCATCTAC | 1.01 RPM ratio (pull-down/input) |
| GATGATTGTTCTCCCAGCTGATGAATTGAAATAGTCGAGTAAACAAATTTTCCTAATCTTTCTGTTCAAGCGCCATCTAC | 0.87 RPM ratio (pull-down/input) |
| GATGATTGTTCTCCCAGCTGATGAATTGGTCATCTCGAGTAAACAAATTTTCCTAATCTTTCTGTTCAAGCGCCATCTAC | 0.855 RPM ratio (pull-down/input) |

| Sequence | binding signal |
| --- | --- |
| GATGATTGTTCTCCCAGCTGATGAATTGGCTCGCTCGAGTAAACAAATTTTCCTAATCTTTCTGTTCAAGCGCCATCTAC | 0.79 RPM ratio (pull-down/input) |
| GATGATTGTTCTCCCAGCTGATGAATTAAAAGCGTCGAGTAAACAAATTTTCCTAATCTTTCTGTTCAAGCGCCATCTAC | 1.09 RPM ratio (pull-down/input) |
| GATGATTGTTCTCCCAGCTGATGAATTCAATGCATCGAGTAAACAAATTTTCCTAATCTTTCTGTTCAAGCGCCATCTAC | 1.26 RPM ratio (pull-down/input) |
| GATGATTGTTCTCCCAGCTGATGAATTGGCCTCTTCGAGTAAACAAATTTTCCTAATCTTTCTGTTCAAGCGCCATCTAC | 0.917 RPM ratio (pull-down/input) |
| GATGATTGTTCTCCCAGCTGATGAATTCCACAAATCGAGTAAACAAATTTTCCTAATCTTTCTGTTCAAGCGCCATCTAC | 1.06 RPM ratio (pull-down/input) |
| GATGATTGTTCTCCCAGCTGATGAATTCGTTGGTTCGAGTAAACAAATTTTCCTAATCTTTCTGTTCAAGCGCCATCTAC | 0.85 RPM ratio (pull-down/input) |
| GATGATTGTTCTCCCAGCTGATGAATTTCGGCTTTCGAGTAAACAAATTTTCCTAATCTTTCTGTTCAAGCGCCATCTAC | 0.853 RPM ratio (pull-down/input) |
| GATGATTGTTCTCCCAGCTGATGAATTGTCTAGATCGAGTAAACAAATTTTCCTAATCTTTCTGTTCAAGCGCCATCTAC | 0.981 RPM ratio (pull-down/input) |
| GATGATTGTTCTCCCAGCTGATGAATTCCTAGTCTCGAGTAAACAAATTTTCCTAATCTTTCTGTTCAAGCGCCATCTAC | 0.762 RPM ratio (pull-down/input) |
| GATGATTGTTCTCCCAGCTGATGAATTGTAGATTTCGAGTAAACAAATTTTCCTAATCTTTCTGTTCAAGCGCCATCTAC | 1.01 RPM ratio (pull-down/input) |
| GATGATTGTTCTCCCAGCTGATGAATTACCACGTTCGAGTAAACAAATTTTCCTAATCTTTCTGTTCAAGCGCCATCTAC | 1.02 RPM ratio (pull-down/input) |
| GATGATTGTTCTCCCAGCTGATGAATTCGGAGCTTCGAGTAAACAAATTTTCCTAATCTTTCTGTTCAAGCGCCATCTAC | 0.821 RPM ratio (pull-down/input) |
| GATGATTGTTCTCCCAGCTGATGAATTCTCGAATTCGAGTAAACAAATTTTCCTAATCTTTCTGTTCAAGCGCCATCTAC | 0.917 RPM ratio (pull-down/input) |
| GATGATTGTTCTCCCAGCTGATGAATTGTCTCGCTCGAGTAAACAAATTTTCCTAATCTTTCTGTTCAAGCGCCATCTAC | 0.914 RPM ratio (pull-down/input) |
| GATGATTGTTCTCCCAGCTGATGAATTGTAGTGGTCGAGTAAACAAATTTTCCTAATCTTTCTGTTCAAGCGCCATCTAC | 1.12 RPM ratio (pull-down/input) |
| GATGATTGTTCTCCCAGCTGATGAATTTTTATCATCGAGTAAACAAATTTTCCTAATCTTTCTGTTCAAGCGCCATCTAC | 1.36 RPM ratio (pull-down/input) |
| GATGATTGTTCTCCCAGCTGATGAATTACAAACATCGAGTAAACAAATTTTCCTAATCTTTCTGTTCAAGCGCCATCTAC | 2.67 RPM ratio (pull-down/input) |
| GATGATTGTTCTCCCAGCTGATGAATTTTCGGAGTCGAGTAAACAAATTTTCCTAATCTTTCTGTTCAAGCGCCATCTAC | 0.904 RPM ratio (pull-down/input) |
| GATGATTGTTCTCCCAGCTGATGAATTCTACGACTCGAGTAAACAAATTTTCCTAATCTTTCTGTTCAAGCGCCATCTAC | 0.859 RPM ratio (pull-down/input) |
| GATGATTGTTCTCCCAGCTGATGAATTGTAATCGTCGAGTAAACAAATTTTCCTAATCTTTCTGTTCAAGCGCCATCTAC | 1.18 RPM ratio (pull-down/input) |
| GATGATTGTTCTCCCAGCTGATGAATTACGAACATCGAGTAAACAAATTTTCCTAATCTTTCTGTTCAAGCGCCATCTAC | 1.27 RPM ratio (pull-down/input) |

| Sequence | binding signal |
| --- | --- |
| GATGATTGTTCTCCCAGCTGATGAATTTTGGAGCTCGAGTAAACAAATTTTCCTAATCTTTCTGTTCAAGCGCCATCTAC | 0.768 RPM ratio (pull-down/input) |
| GATGATTGTTCTCCCAGCTGATGAATTCCCTCAGTCGAGTAAACAAATTTTCCTAATCTTTCTGTTCAAGCGCCATCTAC | 0.82 RPM ratio (pull-down/input) |
| GATGATTGTTCTCCCAGCTGATGAATTCTATCAGTCGAGTAAACAAATTTTCCTAATCTTTCTGTTCAAGCGCCATCTAC | 0.867 RPM ratio (pull-down/input) |
| GATGATTGTTCTCCCAGCTGATGAATTTAAGCTATCGAGTAAACAAATTTTCCTAATCTTTCTGTTCAAGCGCCATCTAC | 0.877 RPM ratio (pull-down/input) |
| GATGATTGTTCTCCCAGCTGATGAATTCGTGCCTTCGAGTAAACAAATTTTCCTAATCTTTCTGTTCAAGCGCCATCTAC | 0.882 RPM ratio (pull-down/input) |
| GATGATTGTTCTCCCAGCTGATGAATTTACCGCTTCGAGTAAACAAATTTTCCTAATCTTTCTGTTCAAGCGCCATCTAC | 1.14 RPM ratio (pull-down/input) |
| GATGATTGTTCTCCCAGCTGATGAATTCCTGAAATCGAGTAAACAAATTTTCCTAATCTTTCTGTTCAAGCGCCATCTAC | 0.973 RPM ratio (pull-down/input) |
| GATGATTGTTCTCCCAGCTGATGAATTCAGGACGTCGAGTAAACAAATTTTCCTAATCTTTCTGTTCAAGCGCCATCTAC | 0.801 RPM ratio (pull-down/input) |
| GATGATTGTTCTCCCAGCTGATGAATTACGTCAATCGAGTAAACAAATTTTCCTAATCTTTCTGTTCAAGCGCCATCTAC | 1.26 RPM ratio (pull-down/input) |
| GATGATTGTTCTCCCAGCTGATGAATTAAGTGCCTCGAGTAAACAAATTTTCCTAATCTTTCTGTTCAAGCGCCATCTAC | 0.989 RPM ratio (pull-down/input) |
| GATGATTGTTCTCCCAGCTGATGAATTCTTCCTGTCGAGTAAACAAATTTTCCTAATCTTTCTGTTCAAGCGCCATCTAC | 0.782 RPM ratio (pull-down/input) |
| GATGATTGTTCTCCCAGCTGATGAATTATTGCACTCGAGTAAACAAATTTTCCTAATCTTTCTGTTCAAGCGCCATCTAC | 1.2 RPM ratio (pull-down/input) |
| GATGATTGTTCTCCCAGCTGATGAATTAGATAGATCGAGTAAACAAATTTTCCTAATCTTTCTGTTCAAGCGCCATCTAC | 0.882 RPM ratio (pull-down/input) |
| GATGATTGTTCTCCCAGCTGATGAATTGCAACAGTCGAGTAAACAAATTTTCCTAATCTTTCTGTTCAAGCGCCATCTAC | 1.42 RPM ratio (pull-down/input) |
| GATGATTGTTCTCCCAGCTGATGAATTTAGAACATCGAGTAAACAAATTTTCCTAATCTTTCTGTTCAAGCGCCATCTAC | 1.2 RPM ratio (pull-down/input) |
| GATGATTGTTCTCCCAGCTGATGAATTTCGAGTTTCGAGTAAACAAATTTTCCTAATCTTTCTGTTCAAGCGCCATCTAC | 0.851 RPM ratio (pull-down/input) |
| GATGATTGTTCTCCCAGCTGATGAATTAAGCTTCTCGAGTAAACAAATTTTCCTAATCTTTCTGTTCAAGCGCCATCTAC | 0.873 RPM ratio (pull-down/input) |
| GATGATTGTTCTCCCAGCTGATGAATTACTCGAATCGAGTAAACAAATTTTCCTAATCTTTCTGTTCAAGCGCCATCTAC | 1.11 RPM ratio (pull-down/input) |
| GATGATTGTTCTCCCAGCTGATGAATTCGACTCCTCGAGTAAACAAATTTTCCTAATCTTTCTGTTCAAGCGCCATCTAC | 0.808 RPM ratio (pull-down/input) |
| GATGATTGTTCTCCCAGCTGATGAATTACCCGTGTCGAGTAAACAAATTTTCCTAATCTTTCTGTTCAAGCGCCATCTAC | 0.918 RPM ratio (pull-down/input) |
| GATGATTGTTCTCCCAGCTGATGAATTCGACATGTCGAGTAAACAAATTTTCCTAATCTTTCTGTTCAAGCGCCATCTAC | 0.897 RPM ratio (pull-down/input) |
